Experimental findings from US10792272B2, “Methods for treatment of Clostridium difficile infections” (priority 2016, dated 2020) are described below.

Molecules are shown by their SMILES.

This assay relates to Clostridium difficile strain 4118 (BI/NAP1/027). The conditions noted are these: stationary-phase CD4118; for decrease in the number of CFUs in 24 h: 4× MIC; for time to eradicate >99.9% of viable cells: 16× MIC (rafoxanide 2 μg/mL, closantel 4 μg/mL, compound 8 1 μg/mL).

Regarding `O=C(Nc1ccc(Oc2ccc(Cl)cc2)c(Cl)c1)c1cc(I)cc(I)c1O` [Rafoxanide, rafoxanide, reference compound], the “decrease in the number of CFUs in 24 h” value was 2.7 log and the “time to eradicate >99.9% of viable cells” value came to 6 h.

As to `O=C(Nc1ccc(Oc2ccc(Cl)cc2)cc1)c1cc(Cl)cc(Cl)c1O` [Compound 8, 3,5-Dichloro-N-(4-(4-chlorophenoxy)phenyl)-2-hydroxybenzamide], the “decrease in the number of CFUs in 24 h” value came to 2.4 log and the “time to eradicate >99.9% of viable cells” value turned out to be 24 h.

For the molecule `Cc1cc(C(C#N)c2ccc(Cl)cc2)c(Cl)cc1NC(=O)c1cc(I)cc(I)c1O` (stereo not drawn) [Closantel], the “decrease in the number of CFUs in 24 h” value is 2.2 log and the “time to eradicate >99.9% of viable cells” value is 24 h.
